Experimental data reported in the supplement of paper PMC4604168 (melanoma cell lines).
The other results are listed elsewhere or left out. Repeats are few or missing, and single values can be far off.

Legend:
Assay in all cases: cell count relative to DMSO control; melanoma cells; higher = more viable cells
Settings in all cases: library dose: standard library concentration; 72 h
SkMel28 = test system: SkMel28
SkMel2 = test system: SkMel2
SkMel30 = test system: SkMel30
SkMel5 = test system: SkMel5
UACC257 = test system: UACC257
UACC62 = test system: UACC62
WM115 = test system: WM115
WM1716 = test system: WM1716
WM1745 = test system: WM1745
WM3526 = test system: WM3526
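Further: cells treated in 1,536-well plates, then fixed and DAPI-stained, with nuclei counted from automated high-throughput microscope images.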

Structure (SMILES)	cell count (SkMel28)	cell count (SkMel2)	cell count (SkMel30)	cell count (SkMel5)	cell count (UACC257)	cell count (UACC62)	cell count (WM115)	cell count (WM1716)	cell count (WM1745)	cell count (WM3526)
COc1ccc(C2=N[C@@H](c3ccc(Cl)cc3)[C@@H](c3ccc(Cl)cc3)N2C(=O)N2CCNC(=O)C2)c(OC(C)C)c1 [Nutlin-3] + Nc1cccc2c1CN(C1CCC(=O)NC1=O)C2=O [lenalidomide] (first compound 0.5 µM, partner dose 5 µM)	55.9%	101%	93.3%	85.9%	80.8%	58.4%	83.6%	79.2%	103%	105%
Cn1c(=O)n(-c2ccc(C(C)(C)C#N)cc2)c2c3cc(-c4cnc5ccccc5c4)ccc3ncc21 + Cc1nc(Nc2ncc(C(=O)Nc3c(C)cccc3Cl)s2)cc(N2CCN(CCO)CC2)n1 [dasatanib] (first compound 0.02 µM, partner dose 0.02 µM)	47.8%	80.6%	71.3%	71%	80%	66.9%	54.3%	42.8%	44.4%	78.9%
Cc1cc(Nc2cc(N3CCN(C)CC3)nc(/C=C/c3ccccc3)n2)n[nH]1 + C[C@@H](Oc1cc(-c2cnn(C3CCNCC3)c2)cnc1N)c1c(Cl)ccc(F)c1Cl [Crizotinib] (first compound 0.2 µM, partner dose 1 µM)	44.1%	72.6%	73.2%	54.1%	79.2%	51.8%	37.8%	69.6%	31.5%	60.4%
Cc1cc(Nc2cc(N3CCN(C)CC3)nc(/C=C/c3ccccc3)n2)n[nH]1 + CC1(C)NC(=O)N(c2ccc([N+](=O)[O-])c(C(F)(F)F)c2)C1=O [nilutamide] (first compound 0.2 µM, partner dose 5 µM)	58.5%	87.1%	100%	76.7%	85.6%	67.6%	69.3%	72.6%	65.1%	96.8%
Cc1cc(Nc2cc(N3CCN(C)CC3)nc(/C=C/c3ccccc3)n2)n[nH]1 + CN(C)S(=O)(=O)c1ccc2c(c1)/C(=C/c1cc3c([nH]1)CCCC3)C(=O)N2 [SU6656] (first compound 0.2 µM, partner dose 2 µM)	26.3%	66.8%	92.2%	76.7%	83.1%	56.9%	36.2%	63.3%	47.8%	65.7%
Cc1cn(-c2cc(NC(=O)c3ccc(C)c(Nc4nccc(-c5cccnc5)n4)c3)cc(C(F)(F)F)c2)cn1 [nilotinib] + CCN(CC)CCNC(=O)c1c(C)[nH]c(/C=C2\C(=O)Nc3ccc(F)cc32)c1C [sunitinib] (first compound 1 µM, partner dose 2 µM)	63.3%	84.6%	85.9%	60.1%	104%	54.7%	83.6%	128%	60.4%	55.4%
Cc1cn(-c2cc(NC(=O)c3ccc(C)c(Nc4nccc(-c5cccnc5)n4)c3)cc(C(F)(F)F)c2)cn1 [nilotinib] + CCCS(=O)(=O)Nc1ccc(F)c(C(=O)c2c[nH]c3ncc(Cl)cc23)c1F [PLX4720] (first compound 1 µM, partner dose 0.4 µM)	56.9%	117%	95.7%	70.5%	120%	46.8%	70.6%	101%	76.8%	68.5%
Cc1cn(-c2cc(NC(=O)c3ccc(C)c(Nc4nccc(-c5cccnc5)n4)c3)cc(C(F)(F)F)c2)cn1 [nilotinib] + CC(=O)c1c(C)c2cnc(Nc3ccc(N4CCNCC4)cn3)nc2n(C2CCCC2)c1=O [palbociclib] (first compound 1 µM, partner dose 0.2 µM)	55.2%	73.5%	62.9%	60.2%	78.6%	58.4%	75%	59%	66.4%	51.5%
Cc1cc(Nc2cc(N3CCN(C)CC3)nc(/C=C/c3ccccc3)n2)n[nH]1 + Nc1ccn([C@@H]2O[C@H](CO)[C@@H](O)C2(F)F)c(=O)n1 [gemcitabine] (first compound 0.2 µM, partner dose 0.002 µM)	97%	114%	103%	89.3%	93.5%	97.6%	72.6%	82.1%	45.1%	97.3%
Cn1c(=O)n(-c2ccc(C(C)(C)C#N)cc2)c2c3cc(-c4cnc5ccccc5c4)ccc3ncc21 + CO[C@H]1C[C@@H]2CC[C@@H](C)[C@@](O)(O2)C(=O)C(=O)N2CCCC[C@H]2C(=O)O[C@H]([C@H](C)C[C@@H]2CC[C@@H](OCCO)[C@H](OC)C2)CC(=O)[C@H](C)/C=C(\C)[C@@H](O)[C@@H](OC)C(=O)[C@H](C)C[C@H](C)/C=C/C=C/C=C/1C [everolimus] (first compound 0.02 µM, partner dose 0.1 µM)	25.8%	32.7%	41.1%	29.1%	73.5%	34.2%	34.4%	56.7%	62.2%	43.3%
CC(C)C[C@H](NC(=O)[C@H](Cc1ccccc1)NC(=O)c1cnccn1)B(O)O [Bortezomib] + CNC(=O)c1cc(Oc2ccc(NC(=O)Nc3ccc(Cl)c(C(F)(F)F)c3)cc2)ccn1 [sorafenib] (first compound 0.005 µM, partner dose 2 µM)	27.4%	59%	36.6%	35.8%	79.5%	76.6%	24.7%	15.1%	23%	29.3%
Cc1cc(Nc2cc(N3CCN(C)CC3)nc(/C=C/c3ccccc3)n2)n[nH]1 + CS(=O)(=O)CCNCc1ccc(-c2ccc3ncnc(Nc4ccc(OCc5cccc(F)c5)c(Cl)c4)c3c2)o1 [lapatinib] (first compound 0.2 µM, partner dose 4 µM)	46%	64.3%	60.2%	50.8%	79%	46.5%	47.6%	70.7%	56%	55.9%
Cn1c(=O)n(-c2ccc(C(C)(C)C#N)cc2)c2c3cc(-c4cnc5ccccc5c4)ccc3ncc21 + O=C(O)[C@@H]1[O][Sb](=[O])([O][Sb]2(=[O])[O][C@H]([C@H](O)CO)[C@H](O)[C@H](C(=O)O)[O]2)[O][C@H]([C@H](O)CO)[C@@H]1O [stibogluconate] (first compound 0.02 µM, partner dose 10 µM)	53.6%	67.2%	68.1%	69.1%	85.1%	63.8%	67.6%	84.9%	85.1%	71.3%
Cc1cn(-c2cc(NC(=O)c3ccc(C)c(Nc4nccc(-c5cccnc5)n4)c3)cc(C(F)(F)F)c2)cn1 [nilotinib] + CN1CCN(c2ccc3nc(-c4c(N)c5c(F)cccc5[nH]c4=O)[nH]c3c2)CC1 [Dovitinib] (first compound 1 µM, partner dose 0.5 µM)	61.4%	76.3%	79.9%	56.7%	90.1%	59.5%	81.2%	83.5%	56.1%	80.3%
Cc1cn(-c2cc(NC(=O)c3ccc(C)c(Nc4nccc(-c5cccnc5)n4)c3)cc(C(F)(F)F)c2)cn1 [nilotinib] + CC1(C)NC(=O)N(c2ccc([N+](=O)[O-])c(C(F)(F)F)c2)C1=O [nilutamide] (first compound 1 µM, partner dose 5 µM)	98.8%	93.8%	104%	61.9%	85.6%	86.9%	71.6%	72.3%	55.6%	99.4%
COc1ccc(C2=N[C@@H](c3ccc(Cl)cc3)[C@@H](c3ccc(Cl)cc3)N2C(=O)N2CCNC(=O)C2)c(OC(C)C)c1 [Nutlin-3] + O=C(O)c1ccc2c(c1)nc(Nc1cccc(Cl)c1)c1ccncc12 [CX4945] (first compound 0.5 µM, partner dose 2 µM)	43.1%	70.9%	63.7%	74.4%	73.3%	50.7%	72%	78.2%	50.6%	73.8%
CC(C)C[C@H](NC(=O)[C@H](Cc1ccccc1)NC(=O)c1cnccn1)B(O)O [Bortezomib] + Cn1c(Nc2ccc(C(F)(F)F)cc2)nc2cc(Oc3ccnc(-c4ncc(C(F)(F)F)[nH]4)c3)ccc21 [CHIR265] (first compound 0.005 µM, partner dose 0.4 µM)	25.5%	39.3%	23.1%	25.7%	67.5%	43%	26.5%	16.5%	22.2%	21.7%
COc1ccc(C2=N[C@@H](c3ccc(Cl)cc3)[C@@H](c3ccc(Cl)cc3)N2C(=O)N2CCNC(=O)C2)c(OC(C)C)c1 [Nutlin-3] + O=C(O)[C@@H]1[O][Sb](=[O])([O][Sb]2(=[O])[O][C@H]([C@H](O)CO)[C@H](O)[C@H](C(=O)O)[O]2)[O][C@H]([C@H](O)CO)[C@@H]1O [stibogluconate] (first compound 0.5 µM, partner dose 10 µM)	42.8%	92.4%	109%	71.5%	67.4%	59.9%	96.6%	72.7%	74.8%	101%
Cc1cn(-c2cc(NC(=O)c3ccc(C)c(Nc4nccc(-c5cccnc5)n4)c3)cc(C(F)(F)F)c2)cn1 [nilotinib] + Cn1sc(=O)n(Cc2ccccc2)c1=O [TDZD-8] (first compound 1 µM, partner dose 2 µM)	74.7%	100%	95.4%	70.6%	124%	75%	97%	109%	74.7%	110%
Cc1cc(Nc2cc(N3CCN(C)CC3)nc(/C=C/c3ccccc3)n2)n[nH]1 + Nc1cccc2c1CN(C1CCC(=O)NC1=O)C2=O [lenalidomide] (first compound 0.2 µM, partner dose 5 µM)	59%	99.5%	98%	73.9%	97.1%	80.6%	68.3%	92.9%	64%	93.8%
Cn1c(=O)n(-c2ccc(C(C)(C)C#N)cc2)c2c3cc(-c4cnc5ccccc5c4)ccc3ncc21 + Nc1nc(F)nc2c1ncn2[C@@H]1O[C@H](CO)[C@@H](O)[C@@H]1O [fludarabine] (first compound 0.02 µM, partner dose 1 µM)	1.62%	2.32%	21.9%	30.5%	29.6%	64%	69.8%	78.2%	70.8%	23.3%
